The campaign covered roughly 340,000 compounds. About 530 (0.16%) were called active. The inconclusive results got no clear call from the source; some entries with a clear call stand among them for comparison. Cut-off read from the data, not from the text of the source: active = activity change below about -80%; inconclusive = between about -30% and that limit; inactive = weaker than that. Numbered stars: 1 amine (or outer) side, 2 acyl side, 3 side chain; on linkers, the order of the positions; unused ones are H or OH. Square brackets hold non-standard residues; d marks the D form. Peptide text beside a SMILES is read from it. X2 = CCC[C@@H](N[*:1])[C@H](C)C(=O)O[C@H](C(=O)[*:2])[C@@H](C)CC; X1 = CC(N[*:1])C(=O)C(C)(C)C(=O)[*:2]; NMeY = CN[C@@H](Cc1ccc(O)cc1)C(=O)O; NMeL = CN[C@@H](CC(C)C)C(=O)O; NMeV = CN[C@H](C(=O)O)C(C)C; NMeA = CN[C@@H](C)C(=O)O
Assay: Small Molecules that selectively kill Giardia lamblia: qHTS;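 note: parasites exposed to compound for two days anaerobically before the ATP read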
Conditions: Giardia lamblia trophozoite viability; at 7.66 µM; hits give low values
How it was run: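 Compounds were tested on trophozoites seeded at 100 cells/well and held 48 hrs at 37 deg C anaerobically. An ATP-based luminescent kit measured the remaining live cells.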
% is set by controls: 0 for no effect and ±100 for the full control effect.

Compound | activity change
O=C(O)CCC(=O)N1CCc2cc(S(=O)(=O)Nc3ccc4c(c3)OCCO4)ccc21 | inconclusive: -32.9% [inhibitor]
Cc1ccc(S(=O)(=O)N2[C@@H](c3ccccc3F)C(C(=O)O)=CC[C@H]2c2cccs2)cc1 | inconclusive: -40.4% [inhibitor]
COc1cc2cnc(-c3ccsc3)cc2cc1OC | inconclusive: -43% [inhibitor]
CC(C)C(c1nnnn1Cc1ccc(F)cc1)N1CCN(c2ccc(O)cc2)CC1 (centres undefined) | inactive: 13.6%
COc1ccc(C(C)=O)cc1COC(=O)CCC(=O)c1cccs1 | inconclusive: -35.9% [inhibitor]
Nc1nc(NCc2ccco2)nc(NCCO)c1[N+](=O)[O-] | inconclusive: -30.4% [inhibitor]
COc1ccc(/C=C2\SC(=S)N(CCC(=O)Nc3cccc(O)c3)C2=O)cc1OC | inconclusive: -39.9% [inhibitor]
COc1cc(CCC(=O)OCC(=O)Nc2ncc(Cl)cc2Cl)cc(OC)c1OC | inconclusive: -30.7% [inhibitor]
CC(=O)c1ccc(NC(=O)COC(=O)C2C3CC4OC(=O)C2C4C3)cc1 (centres undefined) | inconclusive: -32.6% [inhibitor]
CCCC(=O)N(c1ccc(OCC)cc1)S(=O)(=O)c1ccc2c3c(cccc13)C(=O)N2C | inconclusive: -31.9% [inhibitor]
COC(=O)CC1C(=O)NCCN1C(=O)Nc1ccc(Cl)c(Cl)c1 (centres undefined) | inconclusive: -33.6% [inhibitor]
COc1ccc(C(=O)NC2CCN(S(=O)(=O)c3ccc(F)cc3)CC2)cc1 | inconclusive: -46.6% [inhibitor]
CN=c1scc(-c2cccs2)n1/N=C/c1ccccc1O | inconclusive: -75.3% [inhibitor]
COc1ccc2oc(C(=O)N(C)CCOc3ccccc3)c(C)c2c1 | inactive: -0.507%
COc1cc(NC(=O)CN(C)Cc2cccc(F)c2)c(C)cc1[N+](=O)[O-] | inactive: -6.5%
COc1cccc(CNc2nc3ccccc3n2C)c1O | inconclusive: -38% [inhibitor]
CCOC(=O)C1=C(C)OC(N)=C(C#N)C1c1ccc(OC)c(CSc2ccccn2)c1 (centres undefined) | inconclusive: -43.7% [inhibitor]
COc1ccc(C(=O)NCCS(=O)(=O)N2CCOCC2)cc1 | inactive: -2.5%
C=CCN(CC(=O)Nc1cccnc1)S(=O)(=O)c1ccc(Cl)cc1 | inactive: -11%
Oc1[nH]c2ccccc2c1N=Nc1nncc2ccccc12 | inactive: -20%
Cc1ccc(-c2c[n+](Cc3ccc(Cl)c(Cl)c3)c3n2CCC3)cc1 | inactive: -7.84%
COc1ccc2sc(-c3ccccc3OC)c(-c3ccc(O)cc3)c2c1 | inactive: 16.2%
Cc1nnc(SCC(=O)c2ccc([N+](=O)[O-])cc2)s1 | inconclusive: -32.5% [inhibitor]
Cc1ccc(C(=O)OCC(=O)NC2CC2)cc1S(=O)(=O)N1CCOCC1 | inconclusive: -32.1% [inhibitor]
COc1ccc(OC)c(-n2c(SCC(=O)NCC3CCCO3)nc3ccccc3c2=O)c1 (centres undefined) | inactive: -1.67%

Compound | activity change
Nc1cc2sc(-c3ccc(C(=O)O)cc3)nc2cc1Cl | inconclusive: -47.4% [inhibitor]
CCN(CC)C(=S)SCc1csc(CC(=O)Nc2ccccc2C)n1 | inactive: 5.58%
COc1cccc(-n2nc(-c3ccnn3-c3cccc(Cl)c3)c(=O)n(C)c2=O)c1 | inconclusive: -34.6% [inhibitor]
O=C(COc1ccccc1)Nc1cccc(-c2ccc(N3CCOCC3)nn2)c1 | inconclusive: -35.1% [inhibitor]
CCCCn1c(N)c(N(CC)C(=O)c2ccc(-c3ccc(Cl)cc3)o2)c(=O)[nH]c1=O | inconclusive: -30.9% [inhibitor]
COc1ccc(NC(=O)CC2S/C(=N\c3nccs3)N(C)C2=O)cc1 (centres undefined) | inconclusive: -32.2% [inhibitor]
Cc1ccc(CSc2ccc(-c3cccs3)nn2)cc1 | inconclusive: -31.8% [inhibitor]
CCN(CC)S(=O)(=O)c1cc(NS(=O)(=O)c2cccc(Cl)c2)ccc1C | inconclusive: -33.5% [inhibitor]
O=C(NN1C(=O)c2ccccc2NC1c1ccc([N+](=O)[O-])o1)c1ccc([N+](=O)[O-])cc1 (centres undefined) | inconclusive: -79.2% [inhibitor]
O=C(N/N=C/c1cc(Br)cc(Br)c1O)c1cccc(S(=O)(=O)N2CCOCC2)c1 | inactive: -7.77%
FC(F)(F)c1cccc(CNC(=S)Nc2ccccc2)c1 | inactive: -5.8%
CC(=O)Nc1ccc(S(=O)(=O)NC(C)C(=O)NCC(c2ccco2)N2CCCCC2)cc1 (centres undefined) | inconclusive: -43.3% [inhibitor]
Cc1ccc(-c2nc3cccnc3s2)cc1NS(C)(=O)=O | inactive: -29%
NC(=O)c1ccsc1NC(=O)COC(=O)c1ccc([N+](=O)[O-])o1 | inactive: 21.9%
CN=c1scc(-c2ccccc2F)n1/N=C/c1ccc(O)c(O)c1O | active: -103%
O=C(Nc1c(C(=O)NCc2ccco2)cnn1-c1ccccc1)c1ccc(F)cc1 | inconclusive: -36.1% [inhibitor]
O=C(CCC1CCCC1)N1CCN(S(=O)(=O)c2ccc(Br)cc2)CC1 | inconclusive: -33% [inhibitor]
Fc1cccc(CCN2C(=S)NC[C@@H]2CC2CCCCC2)c1 | inconclusive: -31.3% [inhibitor]
COc1ccc(Nc2nc(NCc3ccco3)nc(N/N=C/c3ccccc3F)n2)cc1 | inconclusive: -33.5% [inhibitor]
COc1ccc(-c2nn(-c3ccccc3)cc2C=O)cc1[N+](=O)[O-] | inactive: -19%
COc1ccc(COc2ccc3ccc(=O)oc3c2)cc1 | inconclusive: -31.5% [inhibitor]
COC(=O)c1cc(C)nc(N)c1C#N | inactive: -8.11%
CCOC(=O)C1=C(C)NC2=C(C(=O)c3ccccc32)C1c1ccc([N+](=O)[O-])o1 (centres undefined) | active: -95%
NC1=NC(=Nc2cccc(S(=O)(=O)N3CCOCC3)c2)c2ccccc21 | inactive: -10.1%
[O-][n+]1c2ccccc2c2n1CCN=C2c1ccc(Cl)cc1 | active: -84.1%

Compound | activity change
CN1CCN(C(=O)/C=C/c2ccc3c(c2)OCO3)CC1 | inconclusive: -30.2% [inhibitor]
CCNC1CCC(Nc2ccnc3cc(Cl)ccc23)CC1 (centres undefined) | inactive: -13.2%
Cc1ccc(C(=O)c2c3ccc([N+](=O)[O-])cc3[n+]([O-])n2CCCN)cc1 | inconclusive: -54.7% [inhibitor]
CCOC(=O)C1(CCCc2ccccc2)CCN(C(=O)C2CCCN(C(N)=O)C2)CC1 (centres undefined) | inconclusive: -31.5% [inhibitor]
COc1ccccc1CCc1nnc(CCC(=O)NCC2CCCO2)o1 (centres undefined) | inconclusive: -31.9% [inhibitor]
CC1(C)CC(=O)C(C(C2=C(O)CC(C)(C)CC2=O)c2ccc(O)c([N+](=O)[O-])c2)=C(O)C1 | inconclusive: -35.6% [inhibitor]
COC(=O)c1cc(OC)c(OC)cc1NC(=O)c1c(-c2ccccc2)noc1C | inconclusive: -36.2% [inhibitor]
O=C(COc1cc2oc(=O)cc(-c3ccccc3)c2cc1Cl)NC(Cc1c[nH]c2ccc(O)cc12)C(=O)O (centres undefined) | inactive: 7.89%
CC[C@@H]1C=C(C(=O)O)[C@H](c2ccc(C#N)cc2)N1S(=O)(=O)c1ccc(C)cc1 | inconclusive: -43.1% [inhibitor]
C[C@@H]1CN([C@@H](C)CO)C(=O)c2cc(NC(=O)C3CC3)ccc2O[C@@H]1CN(C)C(=O)NC1CCCCC1 | inconclusive: -34.6% [inhibitor]
COc1ccc(C(=O)Nc2nc3ccccc3s2)c(OC)c1 | active: -95.3%
COC(=O)c1sc(NC(=O)COc2cccnc2[N+](=O)[O-])c(C(=O)OC)c1C | active: -82%
COc1ccccc1NC(=S)N1CCN(c2ccccc2F)CC1 | inconclusive: -40.6% [inhibitor]
O=c1ccn([C@@H]2O[C@H](CNS(=O)(=O)C3CC3)[C@@H](O)[C@H]2O)c(=O)[nH]1 | inactive: 5.98%
CSc1cccc(NC(=S)NC(=O)c2cccnc2)c1 | inconclusive: -33.9% [inhibitor]
CC(C)C1COC(c2cccn2Cc2ccccc2Cl)=N1 (centres undefined) | inactive: 0.257%
CCOC(=O)C1C(=O)CC(C)(O)C(C(=O)OCC)C1c1ccc(SC)cc1 (centres undefined) | inconclusive: -33.4% [inhibitor]
COc1ccc(OCc2nnc3n2N=C(c2ccc(OC)cc2)CS3)cc1 | inconclusive: -53.1% [inhibitor]
O=C(c1ccccc1F)N(Cc1cccnc1)Cc1cc2cc3c(cc2[nH]c1=O)OCCO3 | inactive: -1.96%
CCC[C@H]1NC(=O)[C@H](C)N(C)C(=O)C(C)(C)C(=O)C(C)NC(=O)[C@H](Cc2ccc(OC)cc2)N(C)C(=O)[C@H](C(C)C)N(C)C(=O)CNC(=O)[C@H](CC(C)C)N(C)C(=O)CNC(=O)[C@H]([C@@H](C)CC)OC(=O)[C@H]1C (some centres undefined) (cyclo(G[NMeL]G[NMeV][NMeY](Me)[X1][NMeA][X2])) | inconclusive: -32.5% [inhibitor]
Cc1ccc(-c2cc(C(=O)O)c3sc(N4CCCCC4)nc3n2)cc1 | inactive: -29.3%
CCCn1c(SCC(=O)N2CCc3ccccc3C2)nc2c1c(=O)n(C)c(=O)n2C | inactive: 8.12%
COC(C/C=C/[C@@H](O)[C@@H](C)OCc1ccccc1)OC | inconclusive: -38.7% [inhibitor]
COc1ccc(C(=O)N/C(=C\c2cn(C)c3ccccc23)C(=O)N2CCN(C)CC2)cc1 | inconclusive: -35.3% [inhibitor]

— PubChem BioAssay AID540267 (National Center for Advancing Translational Sciences (NCATS), 2011)
